Laboratory results: US20190169308A1 (ALLIGATOR BIOSCIENCE, published 2019)
Positions count from the first letter of the chain named.

T1: cynomolgus 5T4 on transfected CHO cells (Macaca mulatta (cynomolgus), UniProt F7CT46 35-420)
T1 construct: also called cyno5T4; cy5T4
T1 sequence: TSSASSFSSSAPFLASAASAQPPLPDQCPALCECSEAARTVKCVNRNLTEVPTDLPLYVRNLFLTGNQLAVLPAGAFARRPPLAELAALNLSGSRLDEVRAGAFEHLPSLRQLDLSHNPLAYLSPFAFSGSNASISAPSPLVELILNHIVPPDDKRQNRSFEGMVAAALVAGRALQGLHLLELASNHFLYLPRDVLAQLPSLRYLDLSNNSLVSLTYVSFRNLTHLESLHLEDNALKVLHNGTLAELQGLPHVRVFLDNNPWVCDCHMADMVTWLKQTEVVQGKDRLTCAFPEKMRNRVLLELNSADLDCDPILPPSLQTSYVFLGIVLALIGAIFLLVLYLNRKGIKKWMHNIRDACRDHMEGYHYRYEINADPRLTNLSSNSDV

T2: Human 5T4 (produced in-house) (human, UniProt Q13641 32-355, limits assumed)
T2 sequence (looked up): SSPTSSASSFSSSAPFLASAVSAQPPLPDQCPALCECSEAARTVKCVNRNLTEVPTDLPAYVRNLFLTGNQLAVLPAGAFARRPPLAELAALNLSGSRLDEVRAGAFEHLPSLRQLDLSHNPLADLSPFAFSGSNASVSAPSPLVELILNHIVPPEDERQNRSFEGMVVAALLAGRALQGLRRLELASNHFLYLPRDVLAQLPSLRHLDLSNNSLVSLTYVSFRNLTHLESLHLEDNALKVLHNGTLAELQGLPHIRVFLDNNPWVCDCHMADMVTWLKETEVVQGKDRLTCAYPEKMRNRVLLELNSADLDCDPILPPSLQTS

B1: 1618-1210LO3 (bispecific antibody, human IgG1, kappa)
heavy: EVQLLESGGGLVQPGGSLRLSCAASGFTFSYGSMYWVRQAPGKGLEWVSSISSGSGSTYYADSVKGRFTISRDNSKNTLYLQMNSLRAEDTAVYYCARSSYYGSYYSIDYWGQGTLVTVSS[no letters for human IgG1 constant region with changes]GGGGSGGGGSEVQLLESGGGLVQPGGSLRLSCAASGFDFDSYAMSWVRQAPGKGLEWVSAISGSGGSTYYADSVKGRFTISRDNSKNTLYLQMNSLRAEDTAVYYCARYYGGYYSAWMDYWGQGTLVTVSSGGGGSGGGGSGGGGSDIQMTQSPSSLSASVGDRVTITCRASQSIRQALNWYQQKPGKAPKLLIYAASSLHSGVPSRFSGSGSGTDFTLTISSLQPEDFATYYCQQTYGYLHTFGQGTKLEIK
light: DIQMTQSPSSLSASVGDRVTITCRASQSISSYLNWYQQKPGKAPKLLIYAASSLQSGVPSRFSGSGSGTDFTLTISSLQPEDFATYYCQQYYDNLPTFGQGTKLEIKRTVAAPSVFIFPPSDEQLKSGTASVVCLLNNFYPREAKVQWKVDNALQSGNSQESVTEQDSKDSTYSLSSTLTLSKADYEKHKVYACEVTHQGLSSPVTKSFNRGEC
B2: 1618-1210LO1 (bispecific antibody, human IgG1, kappa)
heavy: EVQLLESGGGLVQPGGSLRLSCAASGFTFSYGSMYWVRQAPGKGLEWVSSISSGSGSTYYADSVKGRFTISRDNSKNTLYLQMNSLRAEDTAVYYCARSSYYGSYYSIDYWGQGTLVTVSS[no letters for human IgG1 constant region with changes]GGGGSGGGGSEVQLLESGGGLVQPGGSLRLSCAASGFDFESYAMSWVRQAPGKGLEWVSAISGSGGSTYYADSVKGRFTISRDNSKNTLYLQMNSLRAEDTAVYYCARYYGGYYSAWMDYWGQGTLVTVSSGGGGSGGGGSGGGGSDIQMTQSPSSLSASVGDRVTITCRASQSIRSALNWYQQKPGKAPKLLIYAASSLQSGVPSRFSGSGSGTDFTLTISSLQPEDFATYYCQQTYGYLHTFGQGTKLEIK
light: B1 light
notes: Morrison format
B3: 1618-1210LO4 (bispecific antibody, human IgG1, kappa)
heavy: EVQLLESGGGLVQPGGSLRLSCAASGFTFSYGSMYWVRQAPGKGLEWVSSISSGSGSTYYADSVKGRFTISRDNSKNTLYLQMNSLRAEDTAVYYCARSSYYGSYYSIDYWGQGTLVTVSS[no letters for human IgG1 constant region with changes]GGGGSGGGGSEVQLLESGGGLVQPGGSLRLSCAASGFDFDSYAMSWVRQAPGKGLEWVSAISGSGGSTYYADSVKGRFTISRDNSKNTLYLQMNSLRAEDTAVYYCARYYGGYYSAWMDYWGQGTLVTVSSGGGGSGGGGSGGGGSDIQMTQSPSSLSASVGDRVTITCRASQSISQALNWYQQKPGKAPKLLIYAASSLHSGVPSRFSGSGSGTDFTLTISSLQPEDFATYYCQQTYGYLHTFGQGTKLEIK
light: B1 light
B4: 1618-1210LO2 (bispecific antibody, human IgG1, kappa)
heavy: EVQLLESGGGLVQPGGSLRLSCAASGFTFSYGSMYWVRQAPGKGLEWVSSISSGSGSTYYADSVKGRFTISRDNSKNTLYLQMNSLRAEDTAVYYCARSSYYGSYYSIDYWGQGTLVTVSS[no letters for human IgG1 constant region with changes]GGGGSGGGGSEVQLLESGGGLVQPGGSLRLSCAASGFDFDSYAMSWVRQAPGKGLEWVSAISGRGGSTYYADSVKGRFTISRDNSKNTLYLQMNSLRAEDTAVYYCARYYGGYYSAWMDYWGQGTLVTVSSGGGGSGGGGSGGGGSDIQMTQSPSSLSASVGDRVTITCRASQSIRSALNWYQQKPGKAPKLLIYAASSLQSGVPSRFSGSGSGTDFTLTISSLQPEDFATYYCQQTYGYLHTFGQGTKLEIK
light: B1 light
B5: 1618-1210LO5 (bispecific antibody, human IgG1, kappa)
heavy: EVQLLESGGGLVQPGGSLRLSCAASGFTFSYGSMYWVRQAPGKGLEWVSSISSGSGSTYYADSVKGRFTISRDNSKNTLYLQMNSLRAEDTAVYYCARSSYYGSYYSIDYWGQGTLVTVSS[no letters for human IgG1 constant region with changes]GGGGSGGGGSEVQLLESGGGLVQPGGSLRLSCAASGFDFSSYAMSWVRQAPGKGLEWVSAISGSGGSTYYADSVKGRFTISRDNSKNTLYLQMNSLRAEDTAVYYCARYYGGYYSAWMDYWGQGTLVTVSSGGGGSGGGGSGGGGSDIQMTQSPSSLSASVGDRVTITCRASQSIRQALNWYQQKPGKAPKLLIYAADSLHSGVPSRFSGSGSGTDFTLTISSLQPEDFATYYCQQTYGYLHTFGQGTKLEIK
light: B1 light
B6: 1210-1618LO1 (bispecific antibody, human IgG1, kappa)
heavy: [no letters for about 100 residues]YYGGYYSAWMDYWGQGTLVTVSS[no letters for human IgG1 constant region with changes]GGGGSGGGGSEVQLLESGGGLVQPGGSLRLSCAASGFTFDYGSMYWVRQAPGKGLEWVSSISSGSGSTYYADSVKGRFTISRDNSKNTLYLQMNSLRAEDTAVYYCARSSYYGSYYSIDYWGQGTLVTVSSGGGGSGGGGSGGGGSDIQMTQSPSSLSASVGDRVTITCRASQSISQYLNWYQQKPGKAPKLLIYGASSLQSGVPSRFSGSGSGTDFTLTISSLQPEDFATYYCQQYYDNLPTFGQGTKLEIK
light: B1 light with Y91T, D93G, N94Y, P96H

target: T1, cynomolgus 5T4 on transfected CHO cells; test: flow cytometry on CHO-K cells transfected with cynomolgus 5T4, anti-IgG(Fc)-PE, MFI

Row | EC50 (read off the curve) [nM] | Binder
1 | ~1 | B1
2 | ~1 | B2
3 | ~1 | B3
4 | ~1 | B4
5 | ~2 | B5

target: T3, cynomolgus CD137 on transfected CHO cells (cynomolgus; human); test: flow cytometry on CHO-K cells transfected with cynomolgus CD137, anti-IgG(Fc)-PE, MFI
T3 construct: extracellular domain;domain: transmembrane and intracellular part; also called CHO-cyCD137; CHOcynoCD137

Row | EC50 (read off the curve) [nM] | Binder
6 | ~2 | B6

target: T4, recombinant human CD137-Fc (R&D #838-4B) (human, UniProt Q07011 24-186); test: BLI Octet, bsAb on anti-Fab-CH1 tips, CD137-Fc as analyte
T4 construct: bought; also called CD137 (R&D #838-4B); not shown: Fc part, bought reagent, not described
T4 sequence (Q07011 24-186 limits assumed): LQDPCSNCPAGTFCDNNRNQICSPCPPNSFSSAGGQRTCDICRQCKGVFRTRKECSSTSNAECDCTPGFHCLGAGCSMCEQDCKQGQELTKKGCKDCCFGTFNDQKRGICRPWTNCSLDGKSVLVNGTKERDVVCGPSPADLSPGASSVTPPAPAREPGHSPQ

Row | Kd [nM] | koff [s⁻¹] | kon [M⁻¹ s⁻¹] | Binder
7 | 1.58 | 0.000344 | 218000 | B6

target: T2, Human 5T4 (produced in-house); test: BLI Octet, bsAb on anti-Fab-CH1 tips, 5T4 as analyte

Row | Kd [nM] | koff [s⁻¹] | kon [M⁻¹ s⁻¹] | Binder
8 | 0.349 | 7.4e-05 | 212000 | B1
9 | 0.147 | 3.29e-05 | 223000 | B2
10 | 0.382 | 7.73e-05 | 202000 | B3
11 | 0.27 | 4.5e-05 | 167000 | B4
12 | 0.467 | 7.65e-05 | 164000 | B5
